Laboratory results reported in the supplement of paper PMC9046079.
Counter-ions that a name gives are not always drawn. ± gives the standard deviation of the averaged measurements. The list shows a part of the results.

What was measured:
[1] = system: murine small intestinal organoids (ENR+CD Paneth differentiation); test: cellular ATP (CellTiter-Glo 3D) relative to plate median (log10 fold change); higher = more viable cells; settings: 6 d
[2] = system: murine small intestinal organoids (ENR+CD Paneth differentiation); test: carbachol-stimulated secreted lysozyme activity relative to plate median (log10 fold change); higher = more Paneth cell lysozyme secretion; settings: 6 d, carbachol 10 µM
[3] = system: murine small intestinal organoids (ENR+CD Paneth differentiation); test: basal (non-stimulated) secreted lysozyme activity relative to plate median (log10 fold change); higher = more Paneth cell lysozyme secretion; settings: 6 d
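For basal (non-stimulated) secreted lysozyme activity relative to plate median in this document: ISC-enriched organoid precursors grown as 2.5D pseudo-monolayer on Matrigel, compound given on day 0 and day 3, plate values LOESS-normalized before median fold change, three murine donors.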
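For cellular ATP (CellTiter-Glo 3D) relative to plate median in this document: 2.5D pseudo-monolayer culture of ISC-enriched organoids partly embedded atop Matrigel, compound added on day 0 and again on day 3, per-plate LOESS correction before median fold change.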

Row | SMILES | cellular ATP (log10) ([1]; 0.08 µM) | cellular ATP (log10) ([1]; 0.4 µM) | cellular ATP (log10) ([1]; 2 µM) | cellular ATP (log10) ([1]; 10 µM) | carbachol-stimulated secreted lysozyme activity (log10) ([2]; 0.08 µM) | carbachol-stimulated secreted lysozyme activity (log10) ([2]; 0.4 µM) | carbachol-stimulated secreted lysozyme activity (log10) ([2]; 2 µM) | carbachol-stimulated secreted lysozyme activity (log10) ([2]; 10 µM) | basal (log10) ([3]; 0.08 µM) | basal (log10) ([3]; 0.4 µM) | basal (log10) ([3]; 2 µM) | basal (log10) ([3]; 10 µM)
1 | C[C@]1(O)C[C@@H](c2nc(-c3ccc4ccc(-c5ccccc5)nc4c3)c3c(N)nccn32)C1 [OSI-906 (Linsitinib)] | -0.324 ± 0.062 | -0.158 ± 0.23 | -0.277 ± 0.18 | -0.391 ± 0.16 | -0.0883 ± 0.1 | -0.16 ± 0.051 | -0.361 ± 0.12 | -0.42 ± 0.091 | 0.0126 ± 0.11 | -0.0926 ± 0.051 | -0.216 ± 0.12 | -0.229 ± 0.079
2 | NC(=O)Nc1sc(-c2ccc(F)cc2)cc1C(N)=O | -0.228 ± 0.24 | 0.0524 ± 0.24 | 0.0254 ± 0.12 | -0.316 ± 0.42 | -0.178 ± 0.23 | -0.0249 ± 0.067 | 0.00649 ± 0.099 | -0.146 ± 0.3 | -0.101 ± 0.21 | -0.00768 ± 0.097 | -0.0475 ± 0.0029 | -0.0723 ± 0.11
3 | Cc1ccc(NC(=O)c2ccc(CN3CCN(C)CC3)cc2)cc1Nc1nccc(-c2cccnc2)n1 [Imatinib (STI571)] | -0.15 ± 0.41 | 0.0786 ± 0.13 | 0.0564 ± 0.096 | -0.0345 ± 0.19 | 0.0197 ± 0.046 | -0.0062 ± 0.008 | -0.0723 ± 0.061 | -0.00373 ± 0.042 | 0.0326 ± 0.024 | 0.012 ± 0.044 | 0.0249 ± 0.11 | -0.0382 ± 0.052
4 | C#Cc1cccc(Nc2ncnc3cc4c(cc23)OCCOCCOCCO4)c1 [Icotinib] | -0.0196 ± 0.11 | -0.0612 ± 0.21 | -0.406 ± 0.31 | -1.07 ± 0.16 | 0.106 ± 0.042 | -0.0914 ± 0.12 | -0.25 ± 0.061 | -0.499 ± 0.028 | 0.0293 ± 0.069 | -0.0726 ± 0.029 | -0.133 ± 0.026 | -0.289 ± 0.042
5 | Cc1nn(-c2ccccc2)c(C)c1C=NN1CCN(Cc2ccccc2)CC1 | 0.283 ± 0.25 | 0.246 ± 0.36 | 0.0446 ± 0.43 | -0.0595 ± 0.091 | -0.00112 ± 0.14 | 0.113 ± 0.17 | 0.145 ± 0.15 | -0.147 ± 0.059 | 0.0686 ± 0.095 | 0.0061 ± 0.056 | 0.125 ± 0.086 | -0.0636 ± 0.037
6 | CN(C)C(=O)Nc1cccc(-c2ccc(N(C)C)cc2)c1 [Atglistatin] | 0.0572 ± 0.026 | 0.0039 ± 0.067 | -0.0452 ± 0.33 | -0.431 ± 0.46 | 0.0057 ± 0.059 | -0.0442 ± 0.16 | 0.0545 ± 0.027 | 0.0658 ± 0.48 | 0.0694 ± 0.066 | 0.135 ± 0.27 | 0.0704 ± 0.072 | -0.0163 ± 0.14
7 | C[C@@H]1COCCN1c1cc(C2(S(C)(=O)=O)CC2)nc(-c2cccc3[nH]ccc23)n1 | -0.21 ± 0.46 | -0.218 ± 0.35 | -1.05 ± 0.42 | -0.573 ± 0.14 | 0.0242 ± 0.053 | -0.24 ± 0.27 | -0.449 ± 0.024 | -0.396 ± 0.045 | 0.0419 ± 0.12 | -0.14 ± 0.11 | -0.215 ± 0.077 | -0.261 ± 0.084
8 | NC1CC1c1ccc(-c2cccc(O)c2)cc1 (stereo unspecified) | 0.0943 ± 0.23 | 0.138 ± 0.24 | 0.128 ± 0.054 | 0.094 ± 0.096 | 0.048 ± 0.043 | 0.0111 ± 0.086 | -0.0297 ± 0.03 | -0.0781 ± 0.095 | -0.000114 ± 0.0089 | -0.0111 ± 0.08 | 0.0209 ± 0.027 | -0.0907 ± 0.057
9 | CCn1c(N)c(C(=O)NC)c(=O)c2ccc(C#CC(C)(O)COC)nc21 (stereo unspecified) | 0.227 ± 0.11 | 0.2 ± 0.22 | 0.214 ± 0.37 | 0.194 ± 0.41 | 0.0276 ± 0.095 | 0.107 ± 0.16 | 0.205 ± 0.014 | 0.159 ± 0.095 | 0.0362 ± 0.094 | 0.0837 ± 0.086 | 0.0945 ± 0.069 | -0.054 ± 0.098
10 | COc1cccc2c1C(=O)c1c(O)c3c(c(O)c1C2=O)C[C@@](O)(C(C)=O)C[C@@H]3O[C@H]1C[C@H](N)[C@H](O)[C@H](C)O1 [Daunorubicin HCl] | -0.467 ± 0.53 | -0.601 ± 0.024 | -0.817 ± 0.6 | -1.1 ± 0.94 | -0.0974 ± 0.51 | -0.474 ± 0.13 | -0.475 ± 0.12 | -0.49 ± 0.095 | -0.136 ± 0.2 | -0.241 ± 0.16 | -0.262 ± 0.18 | -0.26 ± 0.19
11 | C=CC(=O)Nc1cccc(Nc2nc(Nc3ccc(Oc4ccnc(C(=O)NC)c4)cc3)ncc2F)c1 | 0.259 ± 0.26 | 0.177 ± 0.13 | -0.109 ± 0.37 | -0.0811 ± 0.033 | 0.00656 ± 0.14 | -0.0266 ± 0.042 | 0.0193 ± 0.11 | -0.148 ± 0.11 | 0.0753 ± 0.13 | -0.00772 ± 0.063 | 0.158 ± 0.058 | -0.0431 ± 0.078
12 | Cc1cc(NC(=O)Nc2ccc(N(C)C)cc2)c2cc(F)cc(F)c2n1 | 0.253 ± 0.47 | 0.234 ± 0.3 | 0.338 ± 0.28 | 0.174 ± 0.16 | -0.0488 ± 0.56 | 0.178 ± 0.23 | 0.12 ± 0.13 | -0.00412 ± 0.092 | 0.0766 ± 0.26 | 0.127 ± 0.081 | 0.0944 ± 0.085 | 0.156 ± 0.25
13 | CC(=O)c1cc([N+](=O)[O-])c(Sc2ccc(F)cc2F)s1 | -0.216 ± 0.24 | 0.049 ± 0.2 | -0.134 ± 0.076 | -0.13 ± 0.13 | -0.253 ± 0.26 | 0.0734 ± 0.11 | -0.0544 ± 0.034 | -0.149 ± 0.09 | 0.0388 ± 0.16 | -0.00469 ± 0.021 | 0.0285 ± 0.088 | -0.0559 ± 0.073
14 | CNC(=O)c1ccccc1Nc1nc(Nc2ccc(N3CCOCC3)cc2OC)ncc1Cl | -0.748 ± 0.38 | -0.882 ± 0.64 | -0.817 ± 0.57 | -0.646 ± 0.43 | -0.5 ± 0.074 | -0.177 ± 0.35 | -0.259 ± 0.33 | -0.25 ± 0.34 | -0.292 ± 0.12 | -0.0714 ± 0.39 | -0.203 ± 0.19 | -0.158 ± 0.21
15 | Nc1nc(N)c2nc(-c3ccccc3)c(N)nc2n1 [Triamterene] | -0.227 ± 0.52 | 0.201 ± 0.21 | -0.415 ± 0.55 | -0.826 ± 0.69 | -0.166 ± 0.17 | 0.00531 ± 0.11 | -0.228 ± 0.14 | -0.307 ± 0.081 | 0.0133 ± 0.17 | 0.0458 ± 0.044 | -0.106 ± 0.14 | -0.172 ± 0.05
16 | O=C(Nc1cccc(Cl)c1)Nc1ncc(CCNc2ncnc3ccsc23)s1 [SNS-314 Mesylate] | -0.812 ± 0.79 | -0.675 ± 0.5 | -0.271 ± 0.39 | -0.363 ± 0.47 | -0.272 ± 0.048 | 0.075 ± 0.3 | -0.0859 ± 0.19 | -0.0165 ± 0.31 | -0.127 ± 0.061 | -0.018 ± 0.11 | -0.086 ± 0.069 | 0.018 ± 0.22
17 | Nc1ncnc2n[nH]c(Nc3ccc(F)cc3)c12 | 0.108 ± 0.3 | -0.293 ± 0.68 | -0.46 ± 0.4 | 0.0552 ± 0.34 | 0.116 ± 0.074 | 0.119 ± 0.19 | -0.128 ± 0.18 | -0.128 ± 0.25 | 0.218 ± 0.23 | -0.0407 ± 0.031 | -0.0548 ± 0.064 | -0.0369 ± 0.13
18 | COc1ccccc1OCCNCC(O)COc1cccc2[nH]c3ccccc3c12 (stereo unspecified) [Carvedilol] | 0.0568 ± 0.07 | -0.0141 ± 0.46 | -0.151 ± 0.16 | -0.242 ± 0.21 | -0.0322 ± 0.045 | -0.0981 ± 0.087 | -0.114 ± 0.16 | 0.0736 ± 0.33 | 0.00238 ± 0.026 | -0.0201 ± 0.029 | 0.0995 ± 0.29 | -0.0533 ± 0.0041
